Laboratory results: the supplement of paper PMC8728848
The other results are listed elsewhere or left out.

Columns and labels:
Test in all cases: glycan array binding signal (z-score within array); higher = stronger binding
Details in all cases: glycan notation: IUPAC condensed, linker removed
[1] = target: Neu5Ac(a2-3)Gal(b1-3)]Neu5Ac(a2-3)Gal(b1-4)]GlcNAc
Method in brief: (§1)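 Glycan array data were curated from 3228 arrays in the Consortium for Functional Glycomics database and kept only where the protein sequence was available. Glycan names were converted to IUPAC-condensed notation, and columns mapping to the same glycan were averaged. The binding signal is a within-array Z-score, averaged across arrays of the same protein sequence at different concentrations or buffers and across linkers. Negative Z-scores can be read as non-binding.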

Neu5Ac(a2-3)Gal(b1-4)Glc = target: Neu5Ac(a2-3)Gal(b1-4)Glc
Method in brief: as §1

[2] = target: Neu5Ac(a2-3)Gal(b1-4)GlcNAc
Method in brief: as §1

[3] = target: Neu5Ac(a2-3)Gal(b1-4)GlcNAc(b1-2)Man
Method in brief: as §1

[4] = target: Neu5Ac(a2-3)Gal(b1-4)GlcNAc(b1-2)Man(a1-3)[GlcNAc(b1-4)][Neu5Ac(a2-3)Gal(b1-4)GlcNAc(b1-2)Man(a1-6)]Man(b1-4)GlcNAc(b1-4)GlcNAc
Method in brief: as §1

[5] = target: Neu5Ac(a2-3)Gal(b1-4)GlcNAc(b1-2)Man(a1-3)[Neu5Ac(a2-3)Gal(b1-4)GlcNAc(b1-2)Man(a1-6)]Man(b1-4)GlcNAc(b1-4)GlcNAc
Method in brief: as §1

[6] = target: Neu5Ac(a2-3)Gal(b1-4)GlcNAc(b1-2)Man(a1-3)[Neu5Ac(a2-3)Gal(b1-4)GlcNAc(b1-2)Man(a1-6)]Man(b1-4)GlcNAc(b1-4)[Fuc(a1-6)]GlcNAc
Method in brief: as §1

[7] = target: Neu5Ac(a2-3)Gal(b1-4)GlcNAc(b1-2)Man(a1-3)[Neu5Ac(a2-6)Gal(b1-4)GlcNAc(b1-2)Man(a1-6)]Man(b1-4)GlcNAc(b1-4)GlcNAc
Method in brief: as §1

[8] = target: Neu5Ac(a2-3)Gal(b1-4)GlcNAc(b1-2)[Neu5Ac(a2-3)Gal(b1-4)GlcNAc(b1-4)]Man(a1-3)[GlcNAc(b1-4)][Neu5Ac(a2-3)Gal(b1-4)GlcNAc(b1-2)[Neu5Ac(a2-3)Gal(b1-4)GlcNAc(b1-6)]Man(a1-6)]Man(b1-4)GlcNAc(b1-4)GlcNAc
Method in brief: as §1

[9] = target: Neu5Ac(a2-3)Gal(b1-4)GlcNAc(b1-2)[Neu5Ac(a2-3)Gal(b1-4)GlcNAc(b1-4)]Man(a1-3)[GlcNAc(b1-4)][Neu5Ac(a2-3)Gal(b1-4)GlcNAc(b1-4)Man(a1-6)]Man(b1-4)GlcNAc(b1-4)GlcNAc
Method in brief: as §1

[10] = target: Neu5Ac(a2-3)Gal(b1-4)GlcNAc(b1-2)[Neu5Ac(a2-3)Gal(b1-4)GlcNAc(b1-6)]Man(a1-6)[Neu5Ac(a2-3)Gal(b1-4)GlcNAc(b1-2)Man(a1-3)]Man(b1-4)GlcNAc(b1-4)GlcNAc
Method in brief: as §1

[11] = target: Neu5Ac(a2-3)Gal(b1-4)GlcNAc(b1-2)[Neu5Ac(a2-3)Gal(b1-4)GlcNAc(b1-6)]Man(a1-6)[Neu5Ac(a2-3)Gal(b1-4)GlcNAc(b1-2)Man(a1-3)][GlcNAc(b1-4)]Man(b1-4)GlcNAc(b1-4)GlcNAc
Method in brief: as §1

[12] = target: Neu5Ac(a2-3)Gal(b1-4)GlcNAc(b1-3)Gal
Method in brief: as §1

[13] = target: Neu5Ac(a2-3)Gal(b1-4)GlcNAc(b1-3)Gal(b1-3)GlcNAc
Method in brief: as §1

[14] = target: Neu5Ac(a2-3)Gal(b1-4)GlcNAc(b1-3)Gal(b1-4)GlcNAc
Method in brief: as §1

[15] = target: Neu5Ac(a2-3)Gal(b1-4)GlcNAc(b1-3)Gal(b1-4)GlcNAc(b1-2)Man(a1-3)[Neu5Ac(a2-3)Gal(b1-4)GlcNAc(b1-3)Gal(b1-4)GlcNAc(b1-2)Man(a1-6)]Man(b1-4)GlcNAc(b1-4)GlcNAc
Method in brief: as §1

[16] = target: Neu5Ac(a2-3)Gal(b1-4)GlcNAc(b1-3)Gal(b1-4)GlcNAc(b1-3)Gal(b1-4)GlcNAc
Method in brief: as §1

[17] = target: Neu5Ac(a2-3)Gal(b1-4)GlcNAc(b1-3)Gal(b1-4)GlcNAc(b1-3)Gal(b1-4)GlcNAc(b1-2)Man(a1-3)[Neu5Ac(a2-3)Gal(b1-4)GlcNAc(b1-3)Gal(b1-4)GlcNAc(b1-3)Gal(b1-4)GlcNAc(b1-2)Man(a1-6)]GalNAc
Method in brief: as §1

[18] = target: Neu5Ac(a2-3)Gal(b1-4)GlcNAc(b1-3)Gal(b1-4)GlcNAc(b1-3)GalNAc
Method in brief: as §1

[19] = target: Neu5Ac(a2-3)Gal(b1-4)GlcNAc(b1-3)Gal(b1-4)GlcNAc(b1-3)[Neu5Ac(a2-3)Gal(b1-4)GlcNAc(b1-3)Gal(b1-4)GlcNAc(b1-6)]GalNAc
Method in brief: as §1

[20] = target: Neu5Ac(a2-3)Gal(b1-4)GlcNAc(b1-3)Gal(b1-4)GlcNAc(b1-6)[Gal(b1-3)]GalNAc
Method in brief: as §1

[21] = target: Neu5Ac(a2-3)Gal(b1-4)GlcNAc(b1-3)Gal(b1-4)[Fuc(a1-3)]GlcNAc
Method in brief: as §1

[22] = target: Neu5Ac(a2-3)Gal(b1-4)GlcNAc(b1-3)GalNAc
Method in brief: as §1

B1: LFA (Limax flavus) (protein)
chain: MSVLFLAASFLLLASFELVAAQGCPRQDPGDWIVIQRRLNADVNFYRGWADYKHGFGDLRCNFWLGNEKIHQLTSHGRYKLRVEFTFNNKSYFAEYSTFKILGEADKYKLQVGGYSGNAGDALTFHNGMAFSTNDRDNDADSIDCAKVYHGAWWYKTCHESNLNGKWGSKKYGEGLNWKAKTTFTATATSSLLKIKALK
[1]
  glycan array binding signal (z-score): -0.309
Neu5Ac(a2-3)Gal(b1-4)Glc
  glycan array binding signal (z-score): -0.22
[2]
  glycan array binding signal (z-score): -0.238
[3]
  glycan array binding signal (z-score): 0.158
[4]
  glycan array binding signal (z-score): -0.051
[5]
  glycan array binding signal (z-score): -0.34
[6]
  glycan array binding signal (z-score): -0.13
[7]
  glycan array binding signal (z-score): -0.047
[8]
  glycan array binding signal (z-score): -0.357
[9]
  glycan array binding signal (z-score): -0.317
[10]
  glycan array binding signal (z-score): -0.157
[11]
  glycan array binding signal (z-score): -0.068
[12]
  glycan array binding signal (z-score): -0.125
[13]
  glycan array binding signal (z-score): -0.206
[14]
  glycan array binding signal (z-score): -0.334
[15]
  glycan array binding signal (z-score): 2.77
[16]
  glycan array binding signal (z-score): -0.231
[17]
  glycan array binding signal (z-score): 4.29
[18]
  glycan array binding signal (z-score): -0.125
[19]
  glycan array binding signal (z-score): 0.151
[20]
  glycan array binding signal (z-score): 0.323
[21]
  glycan array binding signal (z-score): -0.267
[22]
  glycan array binding signal (z-score): -0.299
